Here are results for three molecules from patent US10407503B2, “Fully human antibodies and fragments recognizing human c-Met” (THE REGENTS OF THE UNIVERSITY OF CALIFORNIA, priority 2012, dated 2019).

“Also recorded” adds a separate entry of the source.

One data set concerns Hcc827-GR6 cells. The data set can be described thus: MTS cell growth assay, gefitinib resistant Hcc827-GR6 cells. The format is cell-based. As to conditions: 3 days, with or without 1 μM gefitinib, MET amplified. How it is done: These diabodies also show therapeutic effects on resistant cells with MET amplification. […] The diabodies were also applied to the resistant cell line GR6 with or without 1 μM gefitinib.
Cell growth and inhibition were evaluated by MTS assay. The MTS assay was based on the ability of live cells to convert 3-(4,5-dimethylthiazol-2-yl)-5-(3-carboxymethoxyphenyl)-2-(4-sulfophenyl)-2H-tetrazolium (MTS) to formazan. The quantity of formazan product was measured by 500 nm absorbance, which is proportional to the number of living cells in culture. The assay was performed with the CellTiter96 AQueous Assay Kit from Promega (Cat# G5421), according to the recommended protocol. 2×10^4 cells were seeded in each well of the 96-well plates and treated with different combination of antibodies and drugs for 3 days before the MTS assay. Each combination of cell line and drug and antibody treatment was set up in at least 4 replicate wells. And the results were normalized to the cells treated with media only.
Different cell lines were treated with C2, H2 or H5 cys-diabodies at different concentrations with or without 1 micromolar of gefitinib for 3 days, and then the cell growth was evaluated with MTS assay. […] All three cys-diabodies show no effects on the parental Hcc827 cells without gefitinib.
These diabodies also show therapeutic effects on resistant cells with MET amplification. […]
In general terms: Tetrazolium assays rely on reduction of a dye to a coloured formazan, in cell work by metabolically active cells.

The test system of another data set is Hcc827-GR6 tumors. Nature of the data set: Ex-vivo biodistribution after PET, Hcc827-GR6 tumors. It counts as in vivo, SCID mice. Particulars: Zr-89 maleimide-DFO labeled, tail vein, ex vivo after final imaging time point (20 hours), n=4. How it is done:
(§1) Hcc827 parental cells and the gefitinib resistant Hcc827-GR6 cells were obtained from Jeffrey A. Engelman's lab. The parental Hcc827 cells were maintained with RPMI 1640 media supplemented with 10% FBS (fetal bovine serum, Invitrogen), 1% sodium pyruvate (Invitrogen) and 1% penicillin-streptomycin (Invitrogen). The Hcc827-GR6 cells were maintained with RPMI1640 media supplemented with 10% FBS, 1% sodium pyruvate, 1% penicillin-streptomycin and 100 nM gefitinib (Santa Cruz biotechnology, Cat#: sc-202166). MKN45 cells (Japanese Collection of Research Bioresources cell bank) were maintained in RPMI 1640 media supplemented with 10% FBS. […]
(§2) Antibody fragments were first dialyzed into metal free PBS (0.5-2 mg/mL). […] The labeling efficiency and radio-chemical purity were determined by ITLC (instant thin-layer chromatography). […] The radioactivity of the combined and supernatant and cell pellet was measured by a Wizard 3′ 1480 Automatic Gamma Counter (Perkin-Elmer, Covina, Calif.). The immunoreactivity was calculated by dividing the radioactivity in the cell pellet with the total radioactivity of supernatant and cell pellet. […]
(§3) Tumor bearing mice were injected via tail vein with approximately 18-25 μg of Zr-89 labeled cys-diabody in PBS. […] Micro-PET images were reconstructed using a filtered backprojection algorithm, and analyzed with AMIDE software. […]

For data set [1], the system named is parental and resistant tumor. Nature of the data set: PET imaging with 64Cu radiolabeled maleimide-DOTA H2 cys-diabody. It counts as in vivo. Particulars: maleimide-DOTA conjugated, initial experiments. As for the experimental part:
These diabodies were also tested on other resistant cells without MET amplification (H1975 and H1650), and they show no effects on those cells. The H2 cys-diabody was site specifically conjugated with maleimide-DOTA and radiolabeled with 64Cu for PET imaging.
These diabodies were also applied to other resistant cells without MET amplification (H1975 and H1650). The diabodies had no effect on such cells. (Data not shown). The H2 cys-diabody was site specifically conjugated with maleimide-DOTA and radiolabeled with ^64Cu for PET imaging.

The target of the next data set is T1, mouse MET protein (Mus musculus, UniProt P16056).
T1 construct: purchased Sino Biological Inc
The data set can be described thus: Anti-MET ELISA, mouse MET-hIgG Fc captured by coated cys-diabodies (cross reactivity). It counts as binding. As to conditions: coated cys-diabody captures mouse MET-hFc. As for the experimental part:
(§4) Three rounds of selections on human MET protein were performed which were successfully reformatted and purified 3 cys-diabodies. C2, H2 and H5 cys-diabodies were tested for cross-reactivity to mouse MET protein. Different cys-diabodies were coated to 96-well plate (milk or anti-EpCAM cys-diabody was used as negative control). Either mouse or human MET protein was applied to the coated cys-diabodies. Then the MET-hFc proteins were detected by anti-human Fc antibody.
(§5) 1 μg of purified anti-MET cys-diabodies in […], PBS were used to coat each well at 4 degree overnight. Anti-EpCAM cys-diabody or 2% milk-PBS were used for negative controls. The overnight coated plate was then washed with PBS and blocked with 2% milk-PBS at 37 degree for 2 hours. […] The captured human or mouse MET-hIgG Fc were detected with alkaline phosphatase conjugated goat anti-human IgG.
(§6) C2, H2 and H5 cys-diabodies were used to coat 96-well ELISA plate to capture human or mouse MET-hIgG Fc fusion protein. The human IgG Fc on the fusion protein was detected with alkaline phosphatase conjugated goat anti-human IgG. […]
(§7) Three rounds of selections on human MET protein were performed, and three cys-diabodies were reformatted and purified (the C2, H2 and H5 cys-diabodies). […] Then the MET-hFc proteins were detected by anti-human Fc antibody.

Another data set deals with Hcc827 parental tumors. The data set can be described thus: Ex-vivo biodistribution after PET, Hcc827 parental tumors. It counts as in vivo, SCID mice. As to conditions: Zr-89 maleimide-DFO labeled, tail vein, ex vivo after final imaging time point (20 hours), n=4. As for the experimental part: as §1, §2, §3
In a further data set the target is T2, human MET protein (Homo sapiens, UniProt P08581).
T2 construct: purchased Sino Biological Inc
The data set can be described thus: Anti-MET ELISA, human MET-hIgG Fc captured by coated cys-diabodies. It counts as binding. Particulars: coated cys-diabody captures human MET-hFc. As for the experimental part:
as §4, §5, §6, §7

The target of the next data set is T3, cell surface MET (Homo sapiens, UniProt P08581).
T3 construct: endogenous in cells; host or cells: Hcc827 or Hcc827-GR6
Nature of the data set: Phage flow cytometry for binding to c-MET expressing cells. Particulars: phage antibodies; Hcc827 or Hcc827-GR6 cells; FITC anti-M13 detection. How it is done:
For phage antibodies, flow cytometry was used to confirm their binding to c-MET expressing cells. Bacteria culture containing phage was concentrated 30 times into PBS according to published method (Antibody Engineering Methods and Protocols, Benny K. C. Lo). 2˜5×105 c-MET positive Hcc827 or Hcc827-GR6 cells (Engelman et. al, Science, 2007) were incubated with 100 ul concentrated phage and 30 ul 4% milk-PBS on ice for 1 hour. Cells were then washed using flow buffer (PBS, 1% FBS, 2 mM EDTA), and the binding phage antibodies were detected by FITC conjugated anti-M13 monoclonal antibody (Santa Cruz Biotechnology, Cat# sc-53005 Fitc).
93 clones were randomly picked after 3 rounds of panning. The phage-containing supernatant was used for phage ELISA. Top 64 clones with highest A405 signal were sequenced, among which 19 distinctive clones with different sequences were identified. These distinctive clones were then tested for binding to cell surface MET by phage flow experiments. 8 of these clones show good binding to cell surface MET and were selected for the subsequent purification and characterizations.
On the technique in general: In flow cytometry, cells or beads pass a laser one at a time.

T1 sequence (P16056 with tags, fused parts or gaps limits assumed): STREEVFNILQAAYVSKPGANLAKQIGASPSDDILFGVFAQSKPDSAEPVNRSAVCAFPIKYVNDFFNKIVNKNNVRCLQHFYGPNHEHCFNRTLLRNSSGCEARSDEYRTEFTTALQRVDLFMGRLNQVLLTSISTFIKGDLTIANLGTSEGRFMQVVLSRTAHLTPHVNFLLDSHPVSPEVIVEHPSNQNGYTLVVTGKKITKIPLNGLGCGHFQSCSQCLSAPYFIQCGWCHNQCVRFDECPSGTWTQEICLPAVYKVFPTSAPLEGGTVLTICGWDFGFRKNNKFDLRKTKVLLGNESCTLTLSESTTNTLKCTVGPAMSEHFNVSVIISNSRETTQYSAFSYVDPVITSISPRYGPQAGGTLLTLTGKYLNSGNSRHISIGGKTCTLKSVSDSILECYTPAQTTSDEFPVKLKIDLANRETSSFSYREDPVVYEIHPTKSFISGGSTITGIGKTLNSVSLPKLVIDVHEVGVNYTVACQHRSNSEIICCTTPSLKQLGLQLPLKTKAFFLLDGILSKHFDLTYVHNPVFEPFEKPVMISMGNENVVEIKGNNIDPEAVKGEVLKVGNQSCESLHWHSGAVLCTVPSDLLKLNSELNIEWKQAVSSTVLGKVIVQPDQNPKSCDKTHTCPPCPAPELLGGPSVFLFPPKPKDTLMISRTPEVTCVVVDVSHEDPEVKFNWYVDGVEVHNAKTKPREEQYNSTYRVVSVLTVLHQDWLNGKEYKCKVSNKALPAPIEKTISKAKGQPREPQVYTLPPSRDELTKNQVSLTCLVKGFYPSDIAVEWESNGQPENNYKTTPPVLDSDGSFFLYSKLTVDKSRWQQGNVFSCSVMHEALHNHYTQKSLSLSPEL
T1 sequence (P16056 25-306 limits assumed): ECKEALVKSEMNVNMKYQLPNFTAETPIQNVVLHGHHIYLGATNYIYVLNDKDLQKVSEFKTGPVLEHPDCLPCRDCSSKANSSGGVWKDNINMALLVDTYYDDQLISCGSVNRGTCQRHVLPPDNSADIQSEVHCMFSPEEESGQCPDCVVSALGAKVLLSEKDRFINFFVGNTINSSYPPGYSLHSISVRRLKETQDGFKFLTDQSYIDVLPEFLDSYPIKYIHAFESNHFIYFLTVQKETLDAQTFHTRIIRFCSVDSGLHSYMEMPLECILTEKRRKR
T3 sequence (P08581 25-1390): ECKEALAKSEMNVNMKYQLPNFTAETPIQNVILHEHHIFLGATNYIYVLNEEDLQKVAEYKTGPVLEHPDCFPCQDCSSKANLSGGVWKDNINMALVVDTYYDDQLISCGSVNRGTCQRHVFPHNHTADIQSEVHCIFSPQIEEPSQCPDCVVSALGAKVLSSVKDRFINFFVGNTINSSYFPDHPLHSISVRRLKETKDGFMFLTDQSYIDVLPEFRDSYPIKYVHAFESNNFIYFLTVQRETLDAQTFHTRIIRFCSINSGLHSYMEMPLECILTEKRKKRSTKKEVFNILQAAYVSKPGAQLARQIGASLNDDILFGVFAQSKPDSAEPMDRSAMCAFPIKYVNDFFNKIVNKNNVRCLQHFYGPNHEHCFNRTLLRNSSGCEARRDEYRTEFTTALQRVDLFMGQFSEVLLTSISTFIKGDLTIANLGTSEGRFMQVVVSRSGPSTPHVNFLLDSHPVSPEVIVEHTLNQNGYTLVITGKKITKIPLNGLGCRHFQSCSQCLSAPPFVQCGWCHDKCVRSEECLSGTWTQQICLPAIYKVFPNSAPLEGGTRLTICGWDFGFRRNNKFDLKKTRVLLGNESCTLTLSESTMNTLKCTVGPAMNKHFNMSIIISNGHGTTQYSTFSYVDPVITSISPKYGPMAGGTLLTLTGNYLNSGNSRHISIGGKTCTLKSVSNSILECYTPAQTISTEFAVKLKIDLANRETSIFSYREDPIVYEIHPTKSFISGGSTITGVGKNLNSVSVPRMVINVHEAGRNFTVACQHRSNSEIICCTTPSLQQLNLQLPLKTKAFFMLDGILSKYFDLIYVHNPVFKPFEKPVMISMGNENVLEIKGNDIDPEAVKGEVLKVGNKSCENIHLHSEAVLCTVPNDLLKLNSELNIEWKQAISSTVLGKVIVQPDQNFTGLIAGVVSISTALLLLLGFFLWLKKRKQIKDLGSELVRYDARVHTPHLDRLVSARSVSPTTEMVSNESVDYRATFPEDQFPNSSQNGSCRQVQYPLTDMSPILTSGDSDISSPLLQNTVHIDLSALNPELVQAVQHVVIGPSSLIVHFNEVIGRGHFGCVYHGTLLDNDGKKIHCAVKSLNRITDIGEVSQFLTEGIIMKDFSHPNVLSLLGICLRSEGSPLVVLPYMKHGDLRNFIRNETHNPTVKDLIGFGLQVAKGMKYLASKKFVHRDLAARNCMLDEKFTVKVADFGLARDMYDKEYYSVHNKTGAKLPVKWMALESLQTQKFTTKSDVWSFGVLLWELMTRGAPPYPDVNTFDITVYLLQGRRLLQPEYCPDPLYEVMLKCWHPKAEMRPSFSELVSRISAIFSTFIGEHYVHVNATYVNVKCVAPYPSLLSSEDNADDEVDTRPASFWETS
T2 sequence (P08581 with tags, fused parts or gaps limits assumed): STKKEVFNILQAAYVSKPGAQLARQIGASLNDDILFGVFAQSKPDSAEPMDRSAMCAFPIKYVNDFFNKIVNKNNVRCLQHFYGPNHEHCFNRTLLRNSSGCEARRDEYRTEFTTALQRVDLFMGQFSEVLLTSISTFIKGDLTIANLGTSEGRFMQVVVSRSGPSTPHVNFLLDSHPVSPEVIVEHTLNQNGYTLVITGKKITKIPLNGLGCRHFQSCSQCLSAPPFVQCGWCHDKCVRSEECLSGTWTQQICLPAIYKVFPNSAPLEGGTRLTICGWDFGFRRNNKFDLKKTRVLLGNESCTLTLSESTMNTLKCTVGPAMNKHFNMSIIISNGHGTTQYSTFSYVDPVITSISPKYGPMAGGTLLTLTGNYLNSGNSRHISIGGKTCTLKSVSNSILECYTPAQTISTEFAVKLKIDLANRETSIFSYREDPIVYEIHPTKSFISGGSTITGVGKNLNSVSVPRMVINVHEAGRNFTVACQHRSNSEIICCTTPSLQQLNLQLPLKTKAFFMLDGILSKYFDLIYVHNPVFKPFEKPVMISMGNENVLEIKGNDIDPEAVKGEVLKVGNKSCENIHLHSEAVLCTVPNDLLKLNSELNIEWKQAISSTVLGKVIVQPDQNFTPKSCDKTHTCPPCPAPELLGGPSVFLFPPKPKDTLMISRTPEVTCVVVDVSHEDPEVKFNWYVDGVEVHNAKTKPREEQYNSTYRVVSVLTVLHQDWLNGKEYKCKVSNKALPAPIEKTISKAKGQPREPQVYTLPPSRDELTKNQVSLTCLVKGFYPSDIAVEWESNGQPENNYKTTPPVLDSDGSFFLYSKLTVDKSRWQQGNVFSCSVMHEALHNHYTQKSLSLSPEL
T2 sequence (P08581 25-307 limits assumed): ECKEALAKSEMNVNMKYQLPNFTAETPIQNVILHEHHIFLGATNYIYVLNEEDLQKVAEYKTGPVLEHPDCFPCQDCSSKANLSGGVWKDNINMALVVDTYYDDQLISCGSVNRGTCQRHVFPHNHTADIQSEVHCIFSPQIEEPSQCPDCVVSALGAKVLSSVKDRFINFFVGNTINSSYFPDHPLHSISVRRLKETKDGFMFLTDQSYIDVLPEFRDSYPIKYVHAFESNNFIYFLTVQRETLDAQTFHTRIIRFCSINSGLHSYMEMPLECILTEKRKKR

B1: H2 cys-diabody: human anti-c-Met cys-diabody comprising SEQ ID NO:23; also tested Zr-89 or 64Cu radiolabeled (protein)
chain: [about 100 residues not shown]EGGKWYYGMDVWGRGTLVTVSSGGGGGSSSELTQDPAVSVALGQTVRITCQGDSLRSYYTNWFQQKPGQAPLLVVYAKNKRPSGIPDRFSGSGSGDTASLTITGAQAEDEADYYCNSRDSSGNYLFAAGTKLTVLGAAAEQKLISEEDLNGAAHHHHHHC
modifications: optionally Zr-89 or 64Cu radiolabel; H2 cys-diabody sequence
notes: also tested Zr-89 or 64Cu radiolabeled
In the case of B1, the “inhibition of growth of resistant Hcc827-GR6 cells” value is “inhibition effect” in the data set with Hcc827-GR6 cells and “best inhibition effect; also recorded: greatest inhibition effect” in the data set with Hcc827-GR6 cells (listed as H2 diabody). For the same molecule, the tumor uptake level in the data set with Hcc827-GR6 tumors worked out at 1.8±0.2 % ID/gram; with Hcc827 parental tumors, 1.1±0.1 % ID/gram. Further, the “tumor targeting in PET imaging” value in data set [1] is “targeting to both parental and resistant tumor”. In the data set with mouse MET protein, the “cross reactivity to mouse MET protein” value was “cross react with mouse MET protein; also recorded: can bind to both human and mouse MET protein”. For the same molecule, the “binding to human MET protein” value with human MET protein was “can bind to both human and mouse MET protein”.

B2: H2 ScFv antibody: human anti-c-Met ScFv comprising SEQ ID NO:31; tested as phage-displayed clone (protein)
scFv: [about 100 residues not shown]EGGKWYYGMDVWGRGTLVTVSSGGGGGSGGGGSGGGGSSSELTQDPAVSVALGQTVRITCQGDSLRSYYTNWFQQKPGQAPLLVVYAKNKRPSGIPDRFSGSGSGDTASLTITGAQAEDEADYYCNSRDSSGNYLFAAGTKLTVLG
modifications: phage-displayed; synthetic H2 ScFv sequence
As to B2, in the data set with cell surface MET, the “binding to cell surface MET” value is on record as “can bind to cell surface MET”.

B3: A12 ScFv antibody: human anti-c-Met ScFv comprising SEQ ID NO:25; tested as phage-displayed clone (protein)
scFv: [about 100 residues not shown]SSSSWYRSYYFDYWGQGTLVTVSSGGGGGSGGGGSGGGGSQSALTQDPAVSVALGQTVRITCRGDSLRNYYASWYQQKPGQAPVLVIYGKNNRPSGIPDRFSGSFSGNTASLTITGAQAEDEADYYCNSRDSSANQMFGGGTKVTVLG
modifications: phage-displayed; synthetic A12 ScFv sequence
Turning to B3, the “binding to cell surface MET” value in the data set with cell surface MET is on record as “can bind to cell surface MET”.
